# Source: the supplement of paper PMC4466236
# Over roughly 33,000 sequences, “E-score (dimensionless, -0.5 to 0.5)” has its median near -0.058; the highest 2% begin near 0.35. The list shows a part of the results.
# Test system: MvaT
# Assay: PBM 8-mer E-score (mean of HK and ME arrays) (E-score (dimensionless, -0.5 to 0.5)); higher = stronger relative binding preference; most listed sequences are background and not binding sites
# Procedure, shortened: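 Full-length P. aeruginosa MvaT carrying an N-terminal glutathione S-transferase tag was tested by protein binding microarray following a previously described protocol. Two universal double-stranded 60-mer arrays, ME and HK, were used, each with a constant 25-mer primer region and a variable 35-mer region covering all 8-mers. The rank-based E-score is the mean of the two arrays, parsed with a custom script. Its range runs from -0.5 to 0.5 for each 8-mer.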
row,Sequence,PBM 8-mer E-score
1,AATATAGC,0.343
2,AGAAGAAA,-0.0887
3,GCTAGCAA,-0.0545
4,CGCGGGGC,-0.171
5,ACGCGTGG,0.0418
6,CCAGACGC,-0.141
7,CAACTAAC,0.196
8,CCTATGGA,-0.202
9,GCGGAGGA,-0.291
10,AAACGGAA,0.163
11,CCTGGTGC,-0.135
12,CCAGATAA,0.165
13,GGCATTTA,0.0577
14,AACCTAAC,0.179
15,AAGGTGGG,-0.155
16,TGCCCAAA,0.0537
17,CAACCGGC,-0.178
18,ATTAGCTA,0.107
19,ATTCGCCC,-0.0494
20,ATAGCGCC,-0.0591
21,CAAGCAGA,-0.0444
22,ATGTGTAC,0.0955
23,ATGAGCTG,-0.246
24,AGCACTAC,-0.0935
25,AAGTGCCT,-0.163

row,Sequence,PBM 8-mer E-score
1,AACGCGCA,0.101
2,ACTGCTGA,-0.0941
3,ACAAACCA,0.185
4,AAATGAAG,0.151
5,CTAAGCCA,-0.0776
6,CTGAGTAA,-0.0888
7,ATAATAAC,0.422
8,ACTCCACG,-0.133
9,ATACCCTG,-0.022
10,AGAATAAG,0.252
11,GCCATCTA,-0.115
12,CCTGTAGA,-0.101
13,AGATCAAA,0.0337
14,CCGTTAAC,0.0566
15,GGGCCGCA,-0.152
16,AGTCCCAG,-0.0827
17,AAAAAATT,0.153
18,ACCAAGCT,-0.11
19,CATGTTGG,0.0133
20,GGCAATCA,0.0212
21,CACCAGGG,-0.259
22,ACGAGTAT,0.141
23,AGTTGGAC,-0.145
24,CTCCTTGA,-0.199
25,CAACTGTC,-0.0355

row,Sequence,PBM 8-mer E-score
1,ATACTTCC,0.155
2,CCGAGGCC,-0.225
3,CGATCTGC,-0.0964
4,GCGAGGTA,-0.119
5,GTCGATGA,-0.185
6,GACTGGGC,-0.329
7,GAATACTC,0.00428
8,ACGTGGGG,-0.199
9,ATACGAGA,0.095
10,CTCTGCTC,-0.211
11,AGCTTAAT,0.171
12,AGTCAGCA,-0.0242
13,ACAGGGGA,-0.231
14,CCTTGTCC,-0.26
15,TACGTGGA,-0.108
16,CGTTGAAG,-0.066
17,ATACTTGC,0.289
18,GCGAGTAC,-0.117
19,CCTCTAGA,-0.0339
20,CGGGTGGC,-0.108
21,CCGTGACA,-0.0782
22,AGGCTTTG,-0.0107
23,GTATCTGA,0.0532
24,AGGTCATG,-0.127
25,GATCTGTA,0.0527

row,Sequence,PBM 8-mer E-score
1,ATGCTCGG,-0.19
2,TTAGTCAA,0.221
3,AGGTCAGA,-0.187
4,AAACGTCT,-0.0815
5,CGTTGTCA,0.00477
6,AAGTGGAT,-0.0311
7,CTCCCGGC,-0.273
8,CTCTCTGA,-0.148
9,CTAACCGA,-0.00329
10,CATTGTTA,0.157
11,ATCTTGTC,-0.0194
12,CCTTCGCG,-0.271
13,CGCATGGA,-0.258
14,CATTATGG,0.14
15,GGAACCCA,-0.163
16,CATTCCAG,-0.269
17,ATGTGGCC,-0.206
18,AGTGTGGC,0.00691
19,AGAAGGAG,-0.258
20,ATGGCCGG,-0.171
21,CCCGCTCA,-0.213
22,GAGTGATA,0.242
23,AACGCCAA,0.0416
24,AGCAATCG,-0.0963
25,CAATTGGG,-0.0128

row,Sequence,PBM 8-mer E-score
1,GACTGGCA,-0.25
2,ACCCAATC,-0.0955
3,AGAACCAA,-0.0552
4,AGGATTGA,-0.172
5,CTGGGCGC,-0.305
6,GCCATTCC,0.00899
7,ATTCTGTG,0.0582
8,GGCTTCTA,-0.102
9,ACACCACC,0.122
10,CCTTCATC,-0.241
11,GGTATAAA,0.339
12,GAATGCTA,0.0872
13,GACCGCTA,-0.115
14,TAACATAA,0.303
15,ACTACTTC,0.117
16,CAGTCTAC,-0.158
17,CGGCAACC,-0.244
18,AGGGAAAT,0.13
19,AGGCGCAG,-0.186
20,GATATATA,0.469
21,CGCTATGC,-0.174
22,TGCTCTAA,-0.0282
23,CAAAACCG,-0.0133
24,GATCGAGA,0.00421
25,CGACACAC,-0.135

row,Sequence,PBM 8-mer E-score
1,AGACAGAG,-0.149
2,ATGCAGCC,-0.192
3,CGGAATGA,-0.2
4,AAGCGAGG,-0.187
5,ATACGGTC,0.0722
6,ATTGCGCA,0.111
7,ATTGGTTC,0.012
8,TACCACGA,0.0575
9,CGAAGCTC,-0.289
10,GGACTCGA,-0.185
11,CGCTCCGA,-0.206
12,ACAATGGA,-0.0253
13,ACGCTTCC,-0.238
14,CGACTGAA,0.0892
15,CTGTACTC,-0.163
16,ACCCCCCA,-0.358
17,AATCCGAC,-0.0943
18,CGTACTAA,0.206
19,AGTGGGCG,-0.217
20,GAAAGATA,0.195
21,GGTGGCCA,-0.194
22,TCTATACA,0.136
23,CAAGCGTG,-0.266
24,GACTAAAC,0.102
25,ATCAGATA,0.0399

row,Sequence,PBM 8-mer E-score
1,CGGATAGA,-0.03
2,CCCACAGA,-0.149
3,GTGGTGGA,-0.159
4,AGACTAGG,-0.127
5,ATCTTAGG,-0.216
6,AACCTCGT,-0.00218
7,GGTACCTA,-0.0911
8,CGATTAGA,0.00897
9,AGCTCGAC,-0.225
10,CCCAGGCC,-0.273
11,ATTACCTA,0.113
12,AGTTATAG,0.316
13,ATCTTCCA,0.0882
14,GCGACTAA,-0.0929
15,CGGTTGTC,-0.114
16,ATATCTAC,0.233
17,GCCTGTAA,0.0748
18,CTTGGCCA,-0.109
19,ACGTTTGA,0.0427
20,CTTGGCAC,-0.232
21,GCCAGAAC,-0.0482
22,CGGGTAGC,-0.17
